In PubChem BioAssay AID504332 (National Center for Advancing Translational Sciences (NCATS), 2011):
About 31,000 (8.9%) of roughly 350,000 compounds were called active. The inconclusive results got no clear call from the source; some entries with a clear call stand among them for comparison. Calls come from the whole dose curve; as a rule, active = well fitted inhibition curve with a large enough effect; inconclusive = small, poorly fitted or top-dose-only effect; inactive = no such curve, though single readings can be large or run the other way. A potency beside an inconclusive call is a rough fit, not a confirmed value.

Biological target: Histone-lysine N-methyltransferase EHMT2 (Homo sapiens) (UniProt Q96KQ7)
Assay: qHTS Assay for Inhibitors of Histone Lysine Methyltransferase G9a; note: nearly all actives have a fitted effect of over 75% in size
Conditions: G9a H3K9 monomethylation, AlphaScreen, 2 h; activity, negative = inhibition: at 59 µM (top of the series) unless noted
Outline: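 G9a (20 nM) was preincubated 15 min with compound, then reacted 2 h at room temperature with 500 nM biotin-H3K9 peptide and 20 µM SAM. Monomethyl-H3K9 detected by AlphaScreen using anti-H3K9me1 antibody.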
% is set by controls: 0 for no effect and ±100 for the full control effect; potency is the fitted concentration of half-maximal effect; tags give direction and shape of the fitted curve.

Sequence of UniProt Q96KQ7 (Q96KQ7 whole entry, looked up): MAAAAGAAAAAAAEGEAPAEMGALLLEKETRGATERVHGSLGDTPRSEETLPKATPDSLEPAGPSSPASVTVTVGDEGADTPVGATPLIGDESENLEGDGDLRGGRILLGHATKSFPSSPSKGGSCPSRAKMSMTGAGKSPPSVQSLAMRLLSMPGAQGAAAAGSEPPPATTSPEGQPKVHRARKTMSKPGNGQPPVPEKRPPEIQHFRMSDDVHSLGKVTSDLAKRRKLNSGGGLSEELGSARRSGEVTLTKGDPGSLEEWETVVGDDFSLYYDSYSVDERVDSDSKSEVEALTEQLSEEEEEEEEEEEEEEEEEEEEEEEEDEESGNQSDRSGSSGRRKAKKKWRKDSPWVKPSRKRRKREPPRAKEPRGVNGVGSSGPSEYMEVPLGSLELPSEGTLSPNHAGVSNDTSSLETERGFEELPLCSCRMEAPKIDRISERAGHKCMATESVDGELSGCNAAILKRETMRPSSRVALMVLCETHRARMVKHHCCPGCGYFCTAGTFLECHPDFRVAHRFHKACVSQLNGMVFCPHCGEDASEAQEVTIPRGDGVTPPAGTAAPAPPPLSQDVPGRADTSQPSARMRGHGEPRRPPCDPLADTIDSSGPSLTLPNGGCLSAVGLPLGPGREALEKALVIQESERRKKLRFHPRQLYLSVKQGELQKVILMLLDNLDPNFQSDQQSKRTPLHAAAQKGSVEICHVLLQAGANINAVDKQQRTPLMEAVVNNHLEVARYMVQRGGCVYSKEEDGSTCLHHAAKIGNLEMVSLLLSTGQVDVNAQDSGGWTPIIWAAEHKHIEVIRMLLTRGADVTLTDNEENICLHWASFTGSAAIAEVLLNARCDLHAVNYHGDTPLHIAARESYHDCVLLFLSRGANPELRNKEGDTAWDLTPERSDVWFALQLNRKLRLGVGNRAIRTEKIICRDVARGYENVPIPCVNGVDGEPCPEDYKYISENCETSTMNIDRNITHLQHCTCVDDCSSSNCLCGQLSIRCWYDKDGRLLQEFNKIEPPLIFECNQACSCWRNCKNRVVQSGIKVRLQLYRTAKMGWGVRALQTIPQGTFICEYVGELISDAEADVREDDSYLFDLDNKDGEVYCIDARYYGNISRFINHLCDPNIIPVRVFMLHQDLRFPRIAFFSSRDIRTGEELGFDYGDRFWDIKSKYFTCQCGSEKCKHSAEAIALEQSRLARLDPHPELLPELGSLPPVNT

Row | SMILES | Potency | activity, negative = inhibition
1 | CN1C(=O)S/C(=C/c2ccc(OCc3cccc(C(=O)O)c3)cc2)C1=O | inconclusive: 1 µM [inhibitor, full curve] | 
2 | O=C(NNC(=O)c1ccccc1-n1cccc1)c1ccc(F)cc1 | inconclusive: 28.2 µM [inhibitor, full curve] | 
3 | Cc1nc2ccccc2c(=O)n1NC(=O)c1ccc(Cl)c(Cl)c1 | inactive | 
4 | O=C(CN1CCC2(CC1)OCCO2)c1c[nH]c2ccccc12 | inconclusive: 100 µM [inhibitor, single point] | 
5 | COc1ccc(Nc2nc3ccccc3nc2NS(=O)(=O)c2ccc(Cl)cc2)cc1OC | inactive | 
6 | CC(CCc1ccc(O)cc1)N(C)CCc1ccccc1 (stereo unspecified) | inconclusive: 3.16 µM [inhibitor, partial curve, poor fit] | 
7 | CN(CC(=O)O/N=C(\N)c1cccc([N+](=O)[O-])c1)S(=O)(=O)c1ccccc1 | inconclusive: 1.12 µM [inhibitor, full curve, poor fit] | 
8 | Cc1ccc2ccc3cccc4ccc1c2c34 |  | inactive: -2.57% [at 0.501 µM]
9 | Cc1c(OCc2nn[nH]n2)ccc2c3c(c(=O)oc12)CCC(C)C3 (stereo unspecified) | active: 50.1 µM | 
10 | Cc1ccc(C)c(N2CCN(C(=O)Cn3c(=O)[nH]c4ccsc4c3=O)CC2)c1 |  | inactive: 2.83% [at 12.7 µM]
11 | CC(C)(C)n1nnnc1C(c1ccc(F)cc1)N1CCN(Cc2ccc3c(c2)OCO3)CC1 (stereo unspecified) | inconclusive: 79.4 µM [inhibitor, partial curve, poor fit] | 
12 | O=C(O)/C=C/C(=O)Nc1c(F)cccc1F | active: 50.1 µM | 
13 | COc1cccc(C(=O)Oc2c(CN3CCOCC3)cc(Cl)c3cccnc23)c1 | inactive | 
14 | O=S(=O)(Nc1cccc(F)c1)c1ccc2[nH]c3c(c2c1)CCCCC3 | inconclusive: 20 µM [inhibitor, partial curve, poor fit] | 
15 | CCC(C(=O)NCc1cccc(Br)c1)n1nc(C)c2c(C)n(-c3ccccc3)nc2c1=O (stereo unspecified) | inconclusive: 8.91 µM [inhibitor, single point] | 
16 | Clc1nnc(Cl)c2c1ncn2Cc1ccccc1 | inactive | 
17 | Cc1c(C#N)c(N=CN(C)C)c(C(=O)c2ccc(Br)cc2)n1-c1ccccc1 | inconclusive: 89.1 µM [inhibitor, single point] | 
18 | O=C(O)C1CCC(NSc2ccccc2[N+](=O)[O-])CC1 (stereo unspecified) | inconclusive: 70.8 µM [inhibitor, partial curve] | 
19 | COc1ccccc1-c1cc(C(=O)NCCc2ccccc2)no1 | inactive | 
20 | Nc1nc(=S)c2ncn(C3CCCC3)c2[nH]1 |  | inactive: 19.2% [at 0.501 µM]
21 | C/C(=N\Nc1cccc2cccnc12)c1ccc(C)cc1 | active: 7.08 µM | 
22 | CCOC(=O)c1cccc(NC(=O)CSc2nc3cc4ccccc4cc3[nH]2)c1 | inconclusive: 22.4 µM [inhibitor, partial curve] | 
23 | Cc1cccc(-c2nsc(SCC(=O)NCc3ccco3)n2)c1 | active: 31.6 µM | 

Row | SMILES | Potency | activity, negative = inhibition
24 | CCOC(=O)Cc1csc(SCC(=O)N2CCN(c3ccc(OC)cc3)CC2)n1 | inconclusive: 0.562 µM [inhibitor, partial curve, poor fit] | 
25 | Cc1cccc(OCC(=O)Nc2cc(S(=O)(=O)N3CCOCC3)ccc2N2CCCC2)c1C | inconclusive: 50.1 µM [inhibitor, partial curve, poor fit] | 
26 | CN(CC(=O)Nc1cccc(F)c1)C(=O)c1ccc(N2CCCC2)c([N+](=O)[O-])c1 | active: 50.1 µM | 
27 | CCCN(CCC)CCCNC(=O)c1nn(-c2cccc(OC)c2)c(=O)c2ccccc12 | inconclusive: 89.1 µM [inhibitor, partial curve, poor fit] | 
28 | COCc1ccc([C@@H]2C[C@H]3CN(Cc4cccnc4)C(=O)[C@]34CCCN24)o1 | inconclusive: 89.1 µM [inhibitor, partial curve, poor fit] | 
29 | COc1cc(CNc2ccc(O)cc2)cc(Br)c1OCc1ccccc1F | active: 11.2 µM | 
30 | CCn1cc(C(=O)O)c(=O)c2cc(F)c(N3CCN(C(=S)NC(=O)c4ccccc4)CC3)cc21 | inconclusive: 56.2 µM [inhibitor, partial curve, poor fit] | 
31 | CCC(=O)N1CCc2cc(CNC(=O)c3ccc(C#N)cc3)ccc21 | inconclusive: 0.708 µM [inhibitor, partial curve, poor fit] | 
32 | Nn1c(SCC(=O)Nc2ccc3c(c2)OCCO3)nnc1-c1ccccn1 | inconclusive: 20 µM [inhibitor, single point] | 
33 | CCOc1ccccc1Nc1nnc(-c2cc3cc(Cl)ccc3oc2=O)s1 | inactive | 
34 | COC(=O)c1sccc1N/N=C/c1cccc(OC)c1O | inconclusive: 0.501 µM [inhibitor, full curve, poor fit] | 
35 | Cc1ccc(NC(=O)Cn2c(-c3nonc3N)nc3ccccc32)cc1C | inactive | 
36 | O=C(OCCN1C(=O)c2cccc3c(N4CCOCC4)ccc(c23)C1=O)c1ccc(Cl)cc1Cl | inactive | 
37 | CC(O)c1cccc(NC2=CC(=O)CC(C)(C)C2)c1 (stereo unspecified) | inactive | 
38 | CCOCCCn1c(=NC(=O)c2cccnc2)c(C(=O)OCC)cc2c(=O)n3ccccc3nc21 | inactive | 
39 | c1ccc(Nc2ncncc2-c2ccc3c(c2)OCO3)cc1 |  | inactive: 2.3% [at 0.501 µM]
40 | O=C(/C=C/c1ccc(N2CCCCC2)c([N+](=O)[O-])c1)c1ccc(S(=O)(=O)N2CCCC2)cc1 | active: 4.47 µM | 
41 | CCCn1nc(NC(=O)c2cccc(Cl)c2)c2cc3cccc(C)c3nc21 | inactive | 
42 | O=C(CSc1nnc(Cc2cccs2)n1C1CC1)NC1CCS(=O)(=O)C1 (stereo unspecified) |  | inactive: 0.0665% [at 2.33 µM]
43 | O=C(Nc1nc(COc2ccccc2)cs1)C12CC3CC(CC(C3)C1)C2 | active: 44.7 µM | 
44 | CCOc1ccc(NC(=O)CSC2=Nc3ccccc3C3=NC(Cc4ccccc4)C(=O)N23)cc1 (stereo unspecified) | inactive | 
45 | CCOC(=O)c1c(C)[nH]c(C)c1S(=O)(=O)N1CCCC(C(=O)Nc2cccc(C)n2)C1 (stereo unspecified) | inconclusive: 0.501 µM [inhibitor, full curve, poor fit] | 
46 | Cc1nc(N)sc1-c1csc(Nc2cccc(C(=O)O)c2)n1 | active: 44.7 µM | 
